This is an account of results in the supplement of paper PMC7125110.

B1: glmS ribozyme (parent)
chain: AUAAAAGCGCCAGAACUACAGAAAUGUAGUUGACGAGGAGGAGGUUUAUCGAAUUUUCGGCGGAUGCCUCCAAA

Details in all cases: with glucosamine-6-phosphate
In data set [1] the parent is B1. Briefly: self-cleavage kobs at 40 uM GlcN6P; higher = faster cleavage; RNA array. In a few lines: (§1)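 Glucosamine-6-phosphate (40 μM to 10 mM) in HEPES/KCl/Mg(OAc)2 buffer was flowed over sequenced MiSeq chips, and tiles were imaged over ~14 h. Barcoded ribozyme variants there had been transcribed in situ by E. coli RNA polymerase and were tracked through a hybridised Cy3 probe at 37 °C. One- or two-exponential decay fits to per-tile medians, normalised to baseline and to non-cleaving reference variants, gave kobs. kcat and KM came from weighted Michaelis–Menten fits across concentrations.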

Data set [2] covers variants of B1. The data set can be described thus: self-cleavage kobs at 640 uM GlcN6P; higher = faster cleavage; RNA array. The essentials:
as §1

Variants of B1 are the subject of data set [3]. Briefly: self-cleavage kobs at 160 uM GlcN6P; higher = faster cleavage; RNA array. The essentials:
as §1

Variants of B1 are the subject of data set [4]. The data set can be described thus: self-cleavage kobs at 10000 uM GlcN6P; higher = faster cleavage; RNA array. In a few lines: as §1
In data set [5] the parent is B1. Briefly: self-cleavage kobs at 2500 uM GlcN6P; higher = faster cleavage; RNA array. The essentials:
as §1

± gives the standard error. This sample is rich in variants without activity. Where only a bound is given, the exact number is not on record here.

Regarding AUAAAAGUGCCAGAACUACAGAAAUGUAGUUGACGAGGAGGAGGUUUAUCGAAUUUUGGGCGGAUGCCUCCAAA [C8U C58G], the “self-cleavage kobs at 40 uM GlcN6P” value in the data set with glucosamine-6-phosphate [1] was less than 1e-05 s⁻¹. The “self-cleavage kobs at 640 uM GlcN6P” value with glucosamine-6-phosphate [2] was less than 1e-05 s⁻¹. The “self-cleavage kobs at 160 uM GlcN6P” value with glucosamine-6-phosphate [3] was less than 1e-05 s⁻¹. In addition, the “self-cleavage kobs at 10000 uM GlcN6P” value in the data set with glucosamine-6-phosphate [4] was less than 1e-05 s⁻¹.
As for AUAAAAGCACCAGAACUACAGAAAUGUAGUUGACGAGGAGGAGGUUUAUCGAAUUUUCGGCGGUUGCCUCCAAA [G9A A64U], the “self-cleavage kobs at 40 uM GlcN6P” value with glucosamine-6-phosphate [1] was less than 1e-05 s⁻¹. The “self-cleavage kobs at 640 uM GlcN6P” value with glucosamine-6-phosphate [2] was less than 1e-05 s⁻¹.
As to AUAAAAGCACCAGAACUACAGAAAUGUAGUUGACGCGGAGGAGGUUUAUCGAAUUUUCGGCGGAUGCCUCCAAA [G9A A36C], the “self-cleavage kobs at 40 uM GlcN6P” value with glucosamine-6-phosphate [1] was less than 1e-05 s⁻¹. Also, the “self-cleavage kobs at 160 uM GlcN6P” value with glucosamine-6-phosphate [3] was less than 1e-05 s⁻¹.
Regarding AUAAAAGUGCCAGAACUACAGAAAUGUAGUUGACUAGGUGGAUGUUUAUCGAAUUUUCGGCGGAUGCCUCCAAA [C8U G35U A39U G43U], in the data set with glucosamine-6-phosphate [1], the “self-cleavage kobs at 40 uM GlcN6P” value was less than 1e-05 s⁻¹. For the same variant, the “self-cleavage kobs at 640 uM GlcN6P” value with glucosamine-6-phosphate [2] was less than 1e-05 s⁻¹.
For AUAAAAGCACCAGCACUACAGAAAUGUAGUUGACGAGGAGGAGGUUUAUCGAAAUUUCGGCGGAUGGCUCCAAA [G9A A14C U54A C67G], in the data set with glucosamine-6-phosphate [1], the “self-cleavage kobs at 40 uM GlcN6P” value is less than 1e-05 s⁻¹.
Regarding AUAAAAGUGCCAGAACUACAGAAAUGUACUUGACGAGGAGUAGGUUUAUCGAAUUUUCGGCGGAUGCCUCCAAA [C8U G29C G41U], in the data set with glucosamine-6-phosphate [1], the “self-cleavage kobs at 40 uM GlcN6P” value is less than 1e-05 s⁻¹.
Consider AUAAAAGUGCCAGAACUACAGAAAUGUAGUUGACGAGGAGGAGGUUUAUCGAGUUUUCGGCGUAUGCCUCCAAA [C8U A53G G63U], for which the “self-cleavage kobs at 40 uM GlcN6P” value with glucosamine-6-phosphate [1] is less than 1e-05 s⁻¹. In the data set with glucosamine-6-phosphate [5], the “self-cleavage kobs at 2500 uM GlcN6P” value was less than 1e-05 s⁻¹.
Turning to AUAAAAGUGCCAUAACUACAGAAAUGUAGUUGACGAGGAGGAGGUAUAUAGAAUUUUCAGCGGAUGCGUCCAAA [C8U G13U U46A C50A G59A C68G], the “self-cleavage kobs at 40 uM GlcN6P” value with glucosamine-6-phosphate [1] was less than 1e-05 s⁻¹. Moreover, in the data set with glucosamine-6-phosphate [2], the “self-cleavage kobs at 640 uM GlcN6P” value was less than 1e-05 s⁻¹. For the same variant, in the data set with glucosamine-6-phosphate [3], the “self-cleavage kobs at 160 uM GlcN6P” value was less than 1e-05 s⁻¹. Further, the “self-cleavage kobs at 2500 uM GlcN6P” value with glucosamine-6-phosphate [5] is less than 1e-05 s⁻¹.
In the case of AUAAAAGUGCUAGAAUUACAGAAAUGUAGUCGACACGGAGGAGGUUUAUCGAAUUUUCCGCGGAUGCCUCCAAA [C8U C11U C16U U31C G35A A36C G59C], the “self-cleavage kobs at 40 uM GlcN6P” value with glucosamine-6-phosphate [1] was less than 1e-05 s⁻¹. Moreover, the “self-cleavage kobs at 10000 uM GlcN6P” value in the data set with glucosamine-6-phosphate [4] is less than 1e-05 s⁻¹.
In the case of AUAAAAGUGCCAGAACUACAGAAAUGUAGUUGACGACGAGAAGGUUUAUCGAAUUUUCGACGGAUGCCUCCAAA [C8U G37C G41A G60A], in the data set with glucosamine-6-phosphate [1], the “self-cleavage kobs at 40 uM GlcN6P” value is less than 1e-05 s⁻¹.
On the same count and under the same terms, the same measure for AUAAAAGUGCCAGAACUACAGAAAUGUAGUUGACGAGGAGGAGUUUUAUCGAAUUUUCGGCGCAUGCCUCCAAA [C8U G44U G63C]: less than 1e-05 s⁻¹.
AUAAAAGCACCAGAACUACAGAAAUGUAGUUGACGAGGAGGAGGUUUAUCGAAUUUUCGGCGGAUGCUUCCAAA [G9A C68U]: the “self-cleavage kobs at 40 uM GlcN6P” value with glucosamine-6-phosphate [1] was less than 1e-05 s⁻¹. For the same variant, the “self-cleavage kobs at 640 uM GlcN6P” value with glucosamine-6-phosphate [2] was less than 1e-05 s⁻¹. Moreover, in the data set with glucosamine-6-phosphate [3], the “self-cleavage kobs at 160 uM GlcN6P” value is less than 1e-05 s⁻¹. The “self-cleavage kobs at 2500 uM GlcN6P” value with glucosamine-6-phosphate [5] was less than 1e-05 s⁻¹. Besides, the “self-cleavage kobs at 10000 uM GlcN6P” value in the data set with glucosamine-6-phosphate [4] is less than 1e-05 s⁻¹.
Turning to AUAAAAGUGCCAUAACUACAGAAAUGUAGUUGACGAGGAGGAGGUUUAUCGAAUUUUCGUCGGAUGCCUCCAAA [C8U G13U G60U], the “self-cleavage kobs at 40 uM GlcN6P” value with glucosamine-6-phosphate [1] was less than 1e-05 s⁻¹. Further, in the data set with glucosamine-6-phosphate [5], the “self-cleavage kobs at 2500 uM GlcN6P” value is less than 1e-05 s⁻¹.
Take AUAAAAGCACCAGAAUUACAGAAAUGUAGUUGACGAGGAGGAGGUUUAUCGAAUUUUCGGCGGAUGCCUCCAAA [G9A C16U]: the “self-cleavage kobs at 40 uM GlcN6P” value with glucosamine-6-phosphate [1] is less than 1e-05 s⁻¹. For the same variant, in the data set with glucosamine-6-phosphate [2], the “self-cleavage kobs at 640 uM GlcN6P” value is less than 1e-05 s⁻¹. Moreover, the “self-cleavage kobs at 160 uM GlcN6P” value with glucosamine-6-phosphate [3] was less than 1e-05 s⁻¹. The “self-cleavage kobs at 2500 uM GlcN6P” value with glucosamine-6-phosphate [5] is less than 1e-05 s⁻¹. For the same variant, the “self-cleavage kobs at 10000 uM GlcN6P” value with glucosamine-6-phosphate [4] was determined as 3.09e-05 ± 1.5e-05 s⁻¹.
On to AUAAAAGUGCCAGAACUACAGAAAUGUAGUUGACGAGGAGGAGGUUUAUCGCAUUUUCGGCGGAUGCCUCCAAA [C8U A52C], for which the “self-cleavage kobs at 40 uM GlcN6P” value in the data set with glucosamine-6-phosphate [1] is less than 1e-05 s⁻¹. For the same variant, in the data set with glucosamine-6-phosphate [3], the “self-cleavage kobs at 160 uM GlcN6P” value was less than 1e-05 s⁻¹. The “self-cleavage kobs at 2500 uM GlcN6P” value with glucosamine-6-phosphate [5] is less than 1e-05 s⁻¹. In addition, the “self-cleavage kobs at 10000 uM GlcN6P” value with glucosamine-6-phosphate [4] is less than 1e-05 s⁻¹.
